# Article PMC6919601, “Identification of Plasmodium dipeptidyl aminopeptidase allosteric inhibitors by high throughput screening” (PLoS ONE, 2019)
# Among all 110,000 compounds or so, about 230 (0.21%) showed an effect of 50% or more. This is one part of the list.
# Target: DPAP1 (Plasmodium falciparum, UniProt Q8IIJ9)
# Test: primary screen, percent inhibition; read by cleavage of a fluorogenic dipeptide substrate; higher = more effect of the substance
# Design: species or system P. falciparum D10 trophozoite lysates; single well
# 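Note: 30 min substrate incubation versus DMSO and 10 µM JCP410 controls.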
# Sequence of DPAP1 (Q8IIJ9 whole entry, looked up): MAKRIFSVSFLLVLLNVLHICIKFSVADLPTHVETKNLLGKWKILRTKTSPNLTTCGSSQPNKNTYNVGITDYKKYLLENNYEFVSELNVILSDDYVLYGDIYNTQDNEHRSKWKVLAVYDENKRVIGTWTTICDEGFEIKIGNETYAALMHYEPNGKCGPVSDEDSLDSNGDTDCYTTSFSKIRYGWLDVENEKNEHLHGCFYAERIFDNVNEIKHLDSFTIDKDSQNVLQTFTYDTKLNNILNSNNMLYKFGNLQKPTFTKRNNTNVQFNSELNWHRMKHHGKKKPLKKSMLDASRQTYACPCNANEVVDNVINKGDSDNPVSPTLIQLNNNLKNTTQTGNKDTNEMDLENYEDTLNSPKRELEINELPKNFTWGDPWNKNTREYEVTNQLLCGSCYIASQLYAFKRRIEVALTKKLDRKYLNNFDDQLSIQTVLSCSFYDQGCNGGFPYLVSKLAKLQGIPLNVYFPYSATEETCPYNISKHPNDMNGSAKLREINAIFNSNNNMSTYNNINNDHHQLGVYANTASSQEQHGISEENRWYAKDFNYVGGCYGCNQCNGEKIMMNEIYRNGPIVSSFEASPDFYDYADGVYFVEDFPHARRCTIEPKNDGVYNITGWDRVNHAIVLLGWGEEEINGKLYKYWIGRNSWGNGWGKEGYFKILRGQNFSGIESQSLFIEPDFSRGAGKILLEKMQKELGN
row,SMILES,% Inhibition @ 10 uM
1,Cc1n[nH]c(C)c1CCCCCCOc1ccc(Cl)cc1,1.35%
2,Cc1ccc(OCCCC(=O)N2CCOCC2)cc1,-7.15%
3,CCC(=O)N1C(C(=O)NCCC2=CCCCC2)CSC12CCN(C)CC2 (centres unmarked),-6.36%
4,C#CC(C)(C)NC(=O)CN(c1ccc(OC)cc1)S(=O)(=O)c1ccccc1,4.32%
5,CNC(=O)c1c(NC(=O)c2ccc(Cl)cc2)sc2c1CCC(C(C)(C)C)C2 (centres unmarked),-3.21%
6,CC(C)C(C(=O)O)N1C(=O)C2C3CCC(C3)C2C1=O (centres unmarked),4.08%
7,COc1cccc(OCC(O)CN2CCN(Cc3ccccc3)CC2)c1 (centres unmarked),-7%
8,CC(=O)c1nc2ccccc2n1Cc1ccccc1,-1.99%
9,CC1=C(C(=O)Nc2ccccc2C)C(c2ccc(N(C)C)cc2)NC(=O)N1 (centres unmarked),-0.564%
10,Cc1ccc(C(=O)Nc2nc(-c3cccc4ccccc34)cs2)o1,-2.44%
11,Cn1c(=O)c2c(n3cnnc13)-c1ccccc1CC21CCCCC1,-3.77%
12,Cc1cc(C)c2c(n1)SCC(=O)N2CCCC(=O)NC(C)c1ccccc1 (centres unmarked),-9.91%
13,Cc1ccc(-n2ncc3c(N4CCc5ccccc5C4)ncnc32)cc1,3.36%
14,COc1ccc(N2C(=O)CC(N3CCN(C)CC3)C2=O)cc1 (centres unmarked),1.08%
15,CS(=O)(=O)C1=NSC2=NC(=O)/C(=C\c3cn(CCOc4ccccc4)c4ccccc34)C(=N)N21,1.85%
16,O=C(Nc1nc2ccc(Cl)cc2s1)c1cccnc1,2.69%
17,S=C1NC2(CCN(Cc3ccccc3)CC2)N=C1c1ccccc1,5.46%
18,Cc1ccc2c(c1)C(c1ccccc1)NCC(=O)N2 (centres unmarked),-0.267%
19,O=C(Nc1ccc(F)cc1)Nc1ccc(Cl)cc1,-0.0369%
20,O=S(=O)(NC1c2ccccc2Oc2ccccc21)c1ccc2ccccc2c1,10.7%
21,COc1ccc(C(=O)N2CCCCCC2)cc1S(=O)(=O)N1CCOCC1,0.605%
22,CC1CCN(S(=O)(=O)c2ccc(NC(=O)c3ccccc3F)cc2)CC1,-4.86%
23,Cc1ccc(CN(Cc2ccco2)C(=O)c2cc3ccccc3oc2=O)cc1,4.47%
24,COc1cccc(-c2nc3cc(Br)cnc3[nH]2)c1OC,0.962%
25,Cc1ccc(S(=O)(=O)NC2(C(F)(F)F)C(=O)Nc3c2c(=O)[nH]c(=O)n3Cc2ccco2)cc1 (centres unmarked),6.64%
26,COc1ccc(/C=C/C(=O)NC(=S)Nc2ccc(S(=O)(=O)Nc3nccs3)cc2)cc1OC,-5.38%

row,SMILES,% Inhibition @ 10 uM
1,COc1cc(Cl)ccc1S(=O)(=O)N1CCN(S(=O)(=O)c2ccc(Cl)cc2OC)CC1,-0.178%
2,CCN(CC)CCN(CC)Cc1ccc(Cl)cc1,-2.34%
3,Cc1nc2n(C)c3ccccc3n2c1C(=O)OCCN1CCCCC1,-1.66%
4,Clc1ccc(-c2nnc(SCc3ccccc3)o2)c(Cl)c1,-2.12%
5,COc1cc(OC)cc(C(=O)Nc2ccc(N3CCN(C(=O)c4ccccc4)CC3)cc2)c1,2.64%
6,COc1ccccc1-c1nnc(SCC(=O)N2CCOCC2)o1,0.738%
7,Cc1nc2ccc(S(=O)(=O)NC(CC(C)C)C(=O)NCCc3ccc(Cl)cc3)cc2s1 (centres unmarked),-1.3%
8,O=c1cc2nc(-c3ccccc3)nc(SCc3ccccc3)n2[nH]1,-8.93%
9,Fc1ccc(CNCc2cccn2-c2nnc(N3CCN(C4CCCCC4)CC3)s2)cc1,-3.84%
10,CC(=O)Nc1ccc(NC(=O)COc2ccc(-c3ccccc3)cc2)cc1,6.15%
11,N#Cc1c(NC(=O)C2CCCO2)sc2c1CCCCC2 (centres unmarked),5.05%
12,N#CC1=C(N)N2C(=O)c3ccccc3SC2=C(C#N)C1c1c(F)cccc1Cl (centres unmarked),3.37%
13,O=C(NCc1nnc(SCC(=O)N2CCC(Cc3ccccc3)CC2)o1)c1ccccc1F,-5.27%
14,N#CC1=C(N)OC2=C(C(=O)CC(c3ccccc3)C2)C1c1ccc(C(F)(F)F)cc1 (centres unmarked),1.41%
15,C=CCNc1nc(Nc2cccc([N+](=O)[O-])c2)nc(OC(C(F)(F)F)C(F)(F)F)n1,1.7%
16,CC(C)CS(=O)(=O)c1oc(-c2cccs2)nc1S(=O)(=O)c1ccc(F)cc1,3.74%
17,O=C(CN(Cc1ccccc1)Cc1ccccc1)NC12CC3CC(CC(C3)C1)C2,8.31%
18,CCCNC(=O)c1c(C)nn(-c2ccccc2)c1-n1cccc1,-1.58%
19,Cc1ccc(CNC(=O)c2c(-c3ccccc3Cl)noc2C)cc1,-2.65%
20,CC(C)C[C@H](NC(=O)OCc1ccc[n+](C)c1)C(=O)NCC#N,-9.37%
21,O=S(=O)(c1ccc(Cl)cc1)N1CCn2c1nc1ccccc12,-1.43%
22,Cc1cc(C(=O)Nc2sc3c(c2C(N)=O)CCCCC3)c(C)o1,12.2%
23,N#C/C(=C\c1ccc(-c2ccc(F)cc2)o1)c1nn(-c2ccccc2)c(N)c1C#N,4.42%
24,CC(=O)c1c(C)[nH]c(C(=O)N2CCN(c3ccccn3)CC2)c1C,-4.14%
25,O=C(c1sccc1-n1cccc1)N1CCCC1,1.72%
26,Clc1cccc(CCNCc2ccncc2)c1,-1.59%

row,SMILES,% Inhibition @ 10 uM
1,CC(C)C(=O)N1CCN(c2ccc(NC(=O)c3ccccc3F)cc2Cl)CC1,-3.43%
2,Cc1ccccc1OC(C)C(=O)Nc1cccc(Cl)c1 (centres unmarked),-4.02%
3,CC1CC(=O)C2=C(C1)OC(N)=C(C#N)C2c1ccc(F)c(Br)c1 (centres unmarked),1.41%
4,CC1CCCC(C)N1CCCNC(=O)Cn1ncc2c3ccccc3nc-2c1O (centres unmarked),-1.46%
5,COCCNC(=O)C1CCCN(c2nn3c(=O)cc(C)nc3s2)C1 (centres unmarked),-5.63%
6,COc1ccc(C2=N/C(=C\c3cccs3)C(=O)O2)c(Cl)c1,-2.18%
7,Cc1nnc2c3ccccc3nc(N3CCC(Cc4ccccc4)CC3)n12,1.4%
8,COc1ccccc1/C=C/CN1CCSCC1,1.26%
9,Cc1cccc(CN2CCN(C(=O)c3ccc(F)cc3)CC2)c1,-1.51%
10,Cc1ccc(OCC(=O)N(C)C2(C)CCS(=O)(=O)C2)cc1 (centres unmarked),-2.21%
11,Cn1c(=O)c2c(nc3n(CC(O)c4ccccc4)c(C45CC6CC(CC(C6)C4)C5)cn23)n(C)c1=O (centres unmarked),0.0974%
12,Cc1ccc(S(=O)(=O)NCC2OCCc3ccccc32)cc1 (centres unmarked),-1.19%
13,C=CCNC(=O)c1cc(-c2ccc(O)cc2)on1,3.89%
14,c1ccc2c3c([nH]c2c1)CN(Cc1ccoc1)CC3,-8.13%
15,Cc1cc(Cl)ccc1OCCCC(=O)Nc1nc(C)c(C)s1,1.17%
16,O=C(NCCSc1ccccc1)c1ccc(CN2CCc3ccccc3C2)cc1,-1.81%
17,N#C/C(=C/C=C/c1ccccc1)c1nc(-c2ccc(-c3ccccc3)cc2)cs1,3.74%
18,CN1CCN(Cc2csc3c2CCCC3)CC1,-6.67%
19,Cc1onc(-c2ccccc2)c1C(=O)Nc1nnc(C(C)(C)C)s1,2.09%
20,N#Cc1c(-c2ccco2)cc(-c2ccc(F)cc2)nc1N,22.7%
21,Cc1nc(=O)c(-c2ccccc2)c(C)n1C,3.82%
22,CCN1C(=O)N/C(=C/c2cn(C(C)C)c3ccccc23)C1=O,-3.87%
23,N#CC1=C(N)N(c2c(F)cccc2F)C2=C(C(=O)CCC2)C1c1ccc(F)cc1 (centres unmarked),1.82%
24,COc1ccc(-c2cn3c(n2)sc2cc(C(=O)NC4CCN(Cc5ccccc5)CC4)ccc23)cc1,9.55%
25,COc1cccc(N2CCN(C(=O)N[C@@H](CC(C)C)C(=O)NCC#N)CC2)c1,-6.98%
26,COc1ccc(N(CC(=O)N(C)Cc2ccccc2)S(C)(=O)=O)cc1OC,0.873%

row,SMILES,% Inhibition @ 10 uM
1,COc1cc(OC)c(C(=O)N(Cc2nc(-c3ccccc3)no2)C(C)C)cc1OC,-1.24%
2,CCN1C(=O)N/C(=C/c2cc(C)n(Cc3ccccc3)c2C)C1=O,1.92%
3,O=C(CNS(=O)(=O)c1cccs1)NCc1ccccc1,-2.12%
4,Clc1ccc(CN2CCN(C/C=C/c3ccccc3)CC2)cc1,-2.14%
5,Cc1c(CC(=O)NCc2ccccc2)c(=O)oc2cc(O)ccc12,-4.39%
6,COc1ccc(C2CC(=O)C(/C=N/CCO)=C(O)C2)cc1OC (centres unmarked),-2.64%
7,Cc1cc2nc(C)n(CCCNC(=O)NC3CCCCC3)c2cc1C,-4.07%
8,Nc1cccc2c1C(=O)c1cccc(NC(=O)c3ccccc3)c1C2=O,0.912%
9,CCOc1cc(/C=C2/SC(Nc3cccc(C(=O)O)c3)=NC2=O)cc(Br)c1OC,-3.26%
10,COc1ccc(Br)cc1CNC(=O)Nc1cccs1,-1.11%
11,COC(=O)C1=C(NC(=O)c2ccccc2Br)CCS1,4.95%
12,Cc1nnc(NC(=O)c2ccc(F)cc2F)s1,2.77%
13,C=CCc1cccc2cc(C(=O)NC(C)c3ccccc3)c(=O)oc12 (centres unmarked),-3.09%
14,COc1ccc(Br)cc1CNC1=NS(=O)(=O)C(c2ccc(C)c(C)c2)=C1C,-4.68%
15,Cc1cc(C)nc(Sc2ncnc3sc4c(c23)CCCC4)n1,9.61%
16,CCCOc1ccc(C(CC(=O)O)NC(=O)c2ccc(OC)cc2OC)cc1 (centres unmarked),2.7%
17,O=C(Nc1cc(Cl)ccc1Cl)c1cccc(Cl)c1,-4.87%
18,CCCCCn1c(=O)c(C(=O)NC(C)c2ccccc2)c(O)c2ccccc21 (centres unmarked),1.4%
19,O=C(CNCc1cccnc1)Nc1ccc(OC(F)(F)F)cc1,5.25%
20,C=CCN1C(=O)/C(=C/c2ccc(Cl)cc2Cl)C(=O)NC1=S,4.6%
21,COc1ccccc1N1C(=O)CC(Nc2ccc(C)cc2)C1=O (centres unmarked),-2.34%
22,Cc1ccc(NC(=O)c2ccc(C)c(C)c2)nc1,-6.66%
23,COc1ccccc1CNC(=O)Cn1ncc2c3ccccc3nc-2c1O,3.72%
